# The campaign covered roughly 340,000 compounds. About 12,000 (3.5%) were called active. The inconclusive results got no clear call from the source; some entries with a clear call stand among them for comparison. Calls follow the shape of the dose curve; as a rule, active = well fitted inhibition curve with a large enough effect; inconclusive = small, poorly fitted or top-dose-only effect, or another doubt; inactive = no such curve, though single readings can be large or run the other way. No potency is given beside an inconclusive call; the fits are too rough.
# Assay: qHTS Assay for Inhibitors of Hepatitis C Virus (HCV)
# Conditions: Huh7.5.1 HCVcc-Cre (HCVcc is cell-culture hepatitis C virus) infection, luciferase reporter, 44 h; series mostly up to 41.8 µM
# Method in brief: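 Whole-lifecycle infectious HCVcc-Cre system; cells 1,000/well, compound then virus (~0.5 moi) added 4 h after plating, 44 h culture. Luciferase read 15 sec following 15 min substrate incubation, room temp.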
# Potency is read from the fitted curve at half-maximal effect; tags tell the direction and shape of the fitted curve.
row,SMILES,Potency
1,O=C(C1CCN(S(=O)(=O)c2ccc(F)cc2)CC1)N1CC=C(c2ccccc2)CC1,"inconclusive [inhibitor, single point]"
2,NC(=S)n1[nH]c(-c2ccc([N+](=O)[O-])cc2)c(N=Nc2cccc(Cl)c2)c1=O,active: 12.6 µM
3,COC(=O)c1cc(C)sc1NC(=O)c1cccnc1,"inconclusive [inhibitor, single point]"
4,N#CC(C(=O)Nc1ccc(Cl)c(Cl)c1)=C1Nc2ccccc2N1,inactive
5,COc1ccc(C(=O)CCc2ccc(OC)c(OC)c2)cc1,"inconclusive [inhibitor, single point]"
6,COC(C)(C)[C@]12CC(O)(c3ccccc3)ON1[C@H]1CCCCC1N2O (stereo partly specified),"inconclusive [inhibitor, single point]"
7,O=C(/C=C/c1cccc(C(F)(F)F)c1)N1CCN(c2ccccn2)CC1,"inconclusive [inhibitor, single point]"
8,CCOC(=O)CN1CCc2c(C)nc3c(-c4ccc(OC)c(OC)c4)cnn3c21,"inconclusive [inhibitor, single point]"
9,CCOC(=O)Cc1csc(NC(=O)c2ccc(NC(C)=O)cc2)n1,inactive
10,COc1cccc(C2=CC(=O)C[C@H](c3ccc4c(c3)OCO4)C2)c1OC,active: 10 µM
11,CN(C)C(=O)C12CCC(C)(C(=O)C1Br)C2(C)C (stereo unspecified),inactive
12,Cc1ccc2[nH]c(=O)c(CN(Cc3cccs3)C(=S)NCc3ccco3)cc2c1,"inconclusive [inhibitor, single point]"
13,NC(=O)c1ccsc1NC(=O)c1ccc(S(=O)(=O)N2CCCC2)cc1,"inconclusive [inhibitor, single point]"
14,COCCCn1c(=NC(=O)c2ccncc2)c(C#N)cc2c(=O)n3cccc(C)c3nc21,inactive
15,CCCCOc1ncnc2c1[nH]c1ccc(F)cc12,active: 2.82 µM
16,CCCn1c(CN2CCN(C(=O)c3ccco3)CC2)nc2c1c(=O)n(C)c(=O)n2C,inactive
17,O=C1CCCC(O)=C1C(C#Cc1ccccc1)C1=C(O)CCCC1=O,"inconclusive [inhibitor, single point]"
18,CCc1cccc(CC)c1NC(=S)NCc1ccc2[nH]c(C)cc2c1,active: 14.1 µM
19,O=S(=O)(c1ccc(Br)cc1)N1CCCC1c1nc2ccccc2s1 (stereo unspecified),"inconclusive [inhibitor, single point]"
20,COC(=O)C1=C(c2ccc(Cl)c(C(F)(F)F)c2)C[C@@H]2CC[C@H]1N2C(=O)NCCOc1ccccc1,"inconclusive [inhibitor, single point]"
21,COC(=O)c1sc(NC(=O)C2c3ccccc3Oc3ccccc32)c(C(=O)OC)c1C,"inconclusive [inhibitor, full curve, poor fit]"
22,COc1ccc(C)cc1NC(=O)C1CCCN(S(=O)(=O)c2ccc3c(c2)CCCN3C(C)=O)C1 (stereo unspecified),"inconclusive [inhibitor, partial curve]"
23,Cc1ccccc1Nc1c([N+](=O)[O-])ccc2nonc12,"inconclusive [inhibitor, single point]"
24,Cc1oc(-c2ccc(-c3ccccc3)cc2)nc1CN(CCO)C(C)C,"inconclusive [inhibitor, partial curve]"

row,SMILES,Potency
1,Cc1cccc(/C=N/NC(=O)c2ccc(Br)cc2)c1,inactive
2,Cc1nn2c(N3CCN(C)CC3)cc(C(C)(C)C)nc2c1-c1ccccc1,"inconclusive [inhibitor, partial curve]"
3,CCC(C)N(C(=O)CSc1nc(-c2cccs2)nc2ccccc12)C1CCS(=O)(=O)C1 (stereo unspecified),"inconclusive [inhibitor, single point]"
4,CCOC(=O)c1cc2sccc2n1CCCN1C(=O)c2ccccc2C1=O,inactive
5,CCOC(=O)CNC(=O)C(Cc1ccccc1)NC(=O)OCc1ccccc1 (stereo unspecified),inactive
6,CCOC(=O)[C@H]1[C@H]2COc3cc(OC)ccc3[C@@H]2N2C(=O)CN(Cc3ccc(Cl)cc3)C(=O)[C@@]12C,inactive
7,Cc1cccc(OCC(=O)Nc2ccc(N3CCN(C(=O)c4ccccc4)CC3)cc2)c1C,"inconclusive [inhibitor, partial curve]"
8,O=C(c1cc2nc(-c3ccco3)cc(C(F)(F)F)n2n1)N1CCc2ccccc2C1,"inconclusive [inhibitor, single point]"
9,CC(C)[C@H](NC(=O)c1ccccc1)C(=O)OCc1nc2scc(-c3ccccc3)c2c(=O)[nH]1,inactive
10,O=C(CNc1cccc(Cl)c1)c1ccc(Cl)cc1,"inconclusive [inhibitor, partial curve, poor fit]"
11,CC(=O)Nc1sc2c(c1C#N)CCCCC2,"inconclusive [inhibitor, single point]"
12,Cc1ccc(C(=O)C[n+]2ccc(Cc3ccccc3)cc2)cc1,"inconclusive [inhibitor, single point]"
13,O=C(Nc1nccc(-c2cccs2)n1)c1ccccc1Cl,inactive
14,CCCC(=O)NC(=S)Nc1ccccc1F,"inconclusive [inhibitor, single point]"
15,COc1ccc(-c2oc3ccc(-c4cc(OC)c(OC)c(OC)c4)cc3c2-c2ccc(OC)nc2)cc1,inactive
16,COc1ccc(CN(C)CC2CCCN(CCc3ccccc3C)C2)cc1O (stereo unspecified),"inconclusive [inhibitor, partial curve]"
17,Oc1ccc(C=NNC(=S)Nc2cccnc2)nc1,"inconclusive [inhibitor, partial curve, poor fit]"
18,Cc1sc(NC(=O)CN2CCCC2)nc1-c1ccc2c(c1)CCN2C(=O)c1ccc(F)cc1,"inconclusive [inhibitor, single point]"
19,O=C(Nc1cc(SCCO)cc([N+](=O)[O-])c1)c1ccc(Br)o1,"inconclusive [inhibitor, partial curve]"
20,N#Cc1nc(Cc2ccccc2)oc1NCc1ccccc1,inactive
21,Nc1nc(-c2ccccn2)nc(N)c1Cc1ccccc1F,"inconclusive [inhibitor, single point]"
22,CCN(CC)S(=O)(=O)c1ccc(NS(=O)(=O)c2ccc3oc(=O)[nH]c3c2)cc1,inactive
23,CCOc1ccc(CCNC(=O)CCCN2C(=O)c3ccccc3C2=O)cc1OCC,"inconclusive [inhibitor, partial curve]"
24,CC1=C(C(=O)Nc2ccc(C)cc2)C(c2ccc(C)o2)C2=C(CC(C)(C)CC2=O)N1 (stereo unspecified),"inconclusive [inhibitor, single point]"

row,SMILES,Potency
1,COc1ccc(-c2oc3ncn(Cc4ccco4)c(=N)c3c2-c2ccc(OC)cc2)cc1,"inconclusive [inhibitor, single point]"
2,O=C(/C=C/c1ccc(Cl)cc1Cl)Nc1ccncc1,"inconclusive [inhibitor, single point]"
3,CCOC(=O)c1c(-c2ccccc2)cn2c(C)cc(C)nc12,inactive
4,O=C(c1ccc(Br)o1)N1CCN(Cc2ccc3c(c2)OCO3)CC1,inactive
5,COc1cccc(OCCNc2cc(N3CCOCC3)ccc2[N+](=O)[O-])c1,active: 14.1 µM
6,CCN(CC)CC(O)Cn1c2ccccc2c2ccccc21 (stereo unspecified),"inconclusive [inhibitor, partial curve]"
7,O=C(CCN1CCCC1)Nc1cccc(Br)c1,"inconclusive [inhibitor, single point]"
8,CN(c1cccc(Cl)c1)S(=O)(=O)c1cccc(C(=O)Nc2ccc3c(c2)CCC3)c1,active: 6.31 µM
9,Fc1ccc(-c2nc(-c3cccs3)no2)cc1,inactive
10,NNC(=O)c1cc2c(s1)CCCCCC2,inactive
11,COc1ccc(NC(=O)CNC(=O)c2ccco2)cc1S(=O)(=O)Nc1cc(C)ccc1Br,"inconclusive [inhibitor, single point]"
12,COc1cc(SC)ccc1C(=O)Nc1nc(C)cs1,"inconclusive [inhibitor, single point]"
13,NC(=O)N/N=C/c1cn(-c2ccccc2)nc1-c1cccs1,"inconclusive [inhibitor, single point]"
14,O=C(COc1ccc2c3c(c(=O)oc2c1)CCC3)c1ccc2c(c1)OCO2,"inconclusive [inhibitor, single point]"
15,CCN(CC)c1ccc(/C=N/O)cc1,inactive
16,COc1ccccc1N(Cc1cc(=O)[nH]c2ccccc12)C(C)=O,inactive
17,C=C(C)CN1CCN(S(=O)(=O)c2ccc(C)c(N(C)S(=O)(=O)c3ccc(C)cc3)c2C)CC1,"inconclusive [inhibitor, partial curve]"
18,CCOc1cc(C(=S)N2CCOCC2)ccc1OS(=O)(=O)c1ccc(OC)cc1,"inconclusive [inhibitor, partial curve]"
19,Cc1oc(-c2ccccc2Cl)nc1CN1C(=O)CN=C(c2ccccc2)c2ccccc21,"inconclusive [inhibitor, partial curve]"
20,O=C(c1ccccc1Br)N1CCC(c2nc3ccccc3s2)CC1,"inconclusive [inhibitor, single point]"
21,CC(C)Oc1cccc(C(=O)NC(=S)NCc2cccnc2)c1,"inconclusive [inhibitor, single point]"
22,COCCCn1c(SCC(=O)NCc2ccco2)nc2sc3c(c2c1=O)CCC3,inactive
23,COC(=O)C1=C(c2ccc(F)cc2F)C[C@@H]2CC[C@H]1N2C(=O)N1CCC(O)(c2ccc(Cl)cc2)CC1,"inconclusive [inhibitor, partial curve]"

# From PubChem BioAssay AID651820 (National Center for Advancing Translational Sciences (NCATS), 2012)
